Paper PMC4336329 (PLoS ONE, 2015)
In all, about 310,000 compounds went through this assay and about 14,000 (4.5%) showed an effect of 50% or more. Effects have a minus sign here. This is one part of the list.

The compounds below were run against human ether-à-go-go-related gene (hERG) potassium channel (human, UniProt Q12809) (assay: primary screen, population patch clamp on CHO cells stably expressing hERG).
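Note: peak tail current of the secondary pulse compared with the same well before compound.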

Chain of human ether-à-go-go-related gene (hERG) potassium channel (Q12809 whole entry, looked up): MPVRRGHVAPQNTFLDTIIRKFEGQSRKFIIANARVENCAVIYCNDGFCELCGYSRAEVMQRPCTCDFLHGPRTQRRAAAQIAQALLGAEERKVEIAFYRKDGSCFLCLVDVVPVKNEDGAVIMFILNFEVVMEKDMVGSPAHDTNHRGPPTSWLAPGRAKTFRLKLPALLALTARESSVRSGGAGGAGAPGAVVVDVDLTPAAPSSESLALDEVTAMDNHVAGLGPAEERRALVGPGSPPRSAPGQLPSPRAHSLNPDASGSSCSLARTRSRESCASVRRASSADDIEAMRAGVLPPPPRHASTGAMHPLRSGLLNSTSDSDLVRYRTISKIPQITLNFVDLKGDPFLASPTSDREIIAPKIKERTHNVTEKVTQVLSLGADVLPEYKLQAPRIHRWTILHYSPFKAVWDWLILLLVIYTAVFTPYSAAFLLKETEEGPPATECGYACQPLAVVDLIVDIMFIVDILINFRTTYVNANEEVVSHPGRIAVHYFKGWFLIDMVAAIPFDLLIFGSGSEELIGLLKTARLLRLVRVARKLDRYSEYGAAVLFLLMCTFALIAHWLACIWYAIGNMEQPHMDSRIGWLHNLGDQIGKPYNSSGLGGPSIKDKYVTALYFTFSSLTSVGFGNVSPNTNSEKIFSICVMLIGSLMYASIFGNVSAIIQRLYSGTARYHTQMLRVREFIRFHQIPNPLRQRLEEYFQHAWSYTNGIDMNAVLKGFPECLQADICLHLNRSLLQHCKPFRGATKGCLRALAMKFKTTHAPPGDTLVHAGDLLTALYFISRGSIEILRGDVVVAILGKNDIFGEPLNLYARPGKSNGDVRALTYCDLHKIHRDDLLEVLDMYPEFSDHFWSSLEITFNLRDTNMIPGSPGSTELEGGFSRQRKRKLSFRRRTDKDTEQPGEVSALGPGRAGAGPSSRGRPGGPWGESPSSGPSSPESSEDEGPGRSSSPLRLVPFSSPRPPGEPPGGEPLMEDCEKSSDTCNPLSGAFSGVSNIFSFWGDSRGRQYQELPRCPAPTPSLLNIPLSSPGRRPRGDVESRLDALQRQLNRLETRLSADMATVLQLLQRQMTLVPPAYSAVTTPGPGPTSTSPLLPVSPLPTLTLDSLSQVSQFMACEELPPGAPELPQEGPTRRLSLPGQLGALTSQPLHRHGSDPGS

Row | Structure (SMILES) | hERG current change (%, negative = inhibition) at 10uM [%]
1 | COc1ccc(-n2c(Cn3c(=O)sc4ccccc43)nnc2SCC(=O)N2CCCC2)cc1 | -15.3
2 | O=C(c1ccc(OC2CCN(CCc3ccccc3)CC2)cc1)N1CCCC1 | -30
3 | C/C(=C\C(=O)c1cccnc1)Nc1ccc(C)c(C)c1 | -20
4 | CC(=O)Nc1ccc(SC[C@H](Cc2ccccc2)N2CC[C@@H](C(C)(C)C)CCC2=O)cc1 | 5.23
5 | O=C(CN1C(=O)NC(Cc2ccccc2)C1=O)Nc1ccc(OC(F)F)cc1 (centres unmarked) | -66.9
6 | Cc1ccc(S(=O)(=O)NC2=C(N3CCN(c4ccccc4F)CC3)C(=O)c3ccccc3C2=O)cc1 | 9.92
7 | CCc1nc(SCC(=O)NC2CC2)c2c(C)c(C)sc2n1 | -0.782
8 | O=C(CCC1CCCCC1)Nc1ccccc1-c1ccccc1 | -15.7
9 | Cc1ccc2sc(NNC(=O)C3=COCCO3)nc2c1C | -1.33
10 | C/C(=N\Nc1ccc(Cl)c(C(=O)O)c1)c1ccccn1 | 5.73
11 | CC(C)(C)c1ccc(-c2ncccc2O)cc1.Cl | 13.7
12 | C=CCN1CCN(Cc2cnc(Cl)s2)CC1 | 9.96
13 | COc1ccc(N2CC(C(=O)N[C@@H](C)C(=O)N3CCCCC3)CC2=O)cc1 (some centres unmarked) | 1.73
14 | CCO[C@@H]1OC(C(=O)N2CCCCCCC2)=C[C@H](c2ccc3c(c2)OCO3)[C@H]1CCCO | -8.7
15 | COC(=O)c1ccc(OCc2cc(=O)n3ccsc3n2)cc1 | 13.3
16 | CC(=O)Nc1ccc(CN(C)CC2CCCN(CCc3cccc(C(F)(F)F)c3)C2)cc1 (centres unmarked) | -68.4
17 | COc1ccccc1CNC(=O)Cc1cc(=O)[nH]c(=O)[nH]1 | 5.37
18 | Cl.O=C(c1ccc2c(c1)OCCO2)N1CCN(Cc2ccccc2)CC1 | 2.59
19 | Cc1nc(NS(=O)(=O)c2ccccc2)sc1C(C)(C)C | -15.5

Row | Structure (SMILES) | hERG current change (%, negative = inhibition) at 10uM [%]
20 | Clc1nc2nc3n(c2nc1Cl)CCC3 | -22.8
21 | CCCN(S(=O)(=O)c1ccc(OCC)cc1)S(=O)(=O)c1cccs1 | 8.45
22 | O=C(Nc1nccs1)c1nc(-c2ccccc2)n(-c2ccccc2)n1 | 6.62
23 | OCC[C@@H]1C[C@@H](O)[C@H](O)[C@]2(CCCCO2)O1 | 16.8
24 | COc1ccc(C2=NN(C(=O)c3ccccc3)C(c3ccccc3)C2)c(O)c1 (centres unmarked) | 16.9
25 | Cc1ccc(NC(=O)CCNCc2ccco2)cc1S(=O)(=O)N(C)C.O=C(O)C(=O)O | -5.26
26 | O=C(CN1CCc2ccccc2C1)NCC(=O)Nc1ccc(F)cc1 | 13.5
27 | CC(Sc1cccc2cccc(C(=O)O)c12)C(=O)O (centres unmarked) | 22.5
28 | O=C(Nc1ccc(Br)cn1)c1ccc([N+](=O)[O-])cc1Cl | -4.01
29 | O=C(C1=C(O)C(=O)N(CC2CCCO2)C1c1ccccc1F)c1ccco1 (centres unmarked) | 6.62
30 | CCS(=O)(=O)c1nc(S(=O)(=O)c2ccc(C)cc2)c(N2CCN(C)CC2)s1 | -6.55
31 | CCOCCCN(C)C1CCN(C(=O)c2oc3ccccc3c2NC(=O)c2ccc([N+](=O)[O-])cc2)CC1 | -75.9
32 | CC(C)COc1ccc(C(=O)OCC(=O)N(C)CC(=O)Nc2ccc(F)cc2)cc1 | 6.57
33 | CC1(C)CC(=O)c2c(nc(SCC(=O)Nc3nsc(-c4ccccc4)n3)c(C#N)c2-c2ccccc2)C1 | 8.85
34 | Nc1cccc2c1C(=O)N(C(=O)/C=C/c1ccc(F)cc1)C2=O | -13.7
35 | CSc1ccc(-c2nc(CSCC(=O)NCCCN3CCOCC3)c(C)o2)cc1 | -9.96
36 | C=CCN1C(=O)c2ccccc2Sc2ccc(C(=O)NCCC)cc21 | -15.5
37 | COCCn1c(SCC(=O)NC(=O)NCc2ccccc2)nc2ccccc21 | -28.7
38 | C1CCCC(N2CCNCC2)CC1.Cl | -6.79

Row | Structure (SMILES) | hERG current change (%, negative = inhibition) at 10uM [%]
39 | O=C(CN1C(=O)NC2(CCCCC2)C1=O)N(Cc1ccco1)Cc1cccs1 | -23.3
40 | Cc1ccc(S(=O)(=O)N2CCN(C(=O)N3CCOCC3)CC2)c(C)c1 | -2.14
41 | CCOC(=O)C1CCN(c2cc(=O)n(Cc3ccc(F)cc3)c(=O)[nH]2)CC1 | 2.86
42 | O=C(COC(=O)CCOc1ccccc1)NCc1ccco1 | -6.91
43 | CCOC(=O)c1nn(-c2ccc(Cl)cc2)cc1O | 1.8
44 | COc1ccc(OCCNC(=O)/C=C/c2ccccc2)cc1 | -2.37
45 | COCCCn1c(SCC(=O)NC2CCCC2)nnc1-c1ccncc1 | 0.367
46 | COc1ccc(O)c(CN2CCCC(N3CCN(c4ccccc4OC)CC3)C2)c1 (centres unmarked) | -11
47 | Clc1ccc(-c2nnc(-c3ccccc3)c(-c3ccccc3)n2)cc1 | 9.87
48 | COC(=O)c1cn(C(=O)c2ccc(C)c(C)c2)c2ccccc12 | 7.09
49 | CNC(=O)c1cccc(NC(=O)c2cc(-c3ccccc3)nc3c2cnn3C(C)C)c1 | 1.39
50 | COC(=O)c1ccccc1NC(=O)c1cc[n+](C)cc1 | 11.8
51 | O=C(c1cc(C2CC2)nn1-c1ccccc1)N1CCN(S(=O)(=O)c2cccc(F)c2)CC1 | -28.1
52 | COc1cccc(CNC(=O)CCC2CCCN(Cc3ccc(OC(F)F)cc3)C2)c1 (centres unmarked) | -76.6
53 | CCCC(C(=O)NCc1ccco1)N(C(=O)CNS(=O)(=O)c1ccccc1)c1ccccc1OC (centres unmarked) | -27.4
54 | Cc1ccc(N(C)C(=O)c2cnn(-c3ccccc3)c2C)c(C)c1 | -19.6
55 | Cc1cc(Cl)ccc1NNC(=O)CCc1ccccc1 | 1.19
56 | Cc1cnc([N+](=O)[O-])n1CCOC(=O)NC(=O)c1ccc(C(F)(F)F)cc1 | -40.2
